Data reported in PubChem BioAssay (NCATS).
Inconclusive means that the source gave no clear call. Such entries were picked first, then a sample of the others. For some of these results: No potency is given beside an inconclusive call; the fits are too rough. For some of these results: A note “side channel” means that the fit belongs to a control or component signal, not to the main read-out. Activity calls are given as the source filed them. Unless noted, the call rests on the fitted dose curve; in most records, active means well fitted curve in the direction sought with a large enough effect; inconclusive means small, poorly fitted or top-dose-only effect, or another doubt; inactive means no such curve, though single readings can be large; an effect the other way counts as inactive or inconclusive.

Columns and labels:
[1] = target: Estrogen receptor (Homo sapiens) (UniProt P03372); assay: qHTS assay for small molecule antagonists of estrogen receptor alpha signaling (AID 588513; active means well fitted curve in the direction sought with a large enough effect in the signal ratio, with a control signal flat, not every such curve was filed as active; inconclusive means small, poorly fitted or top-dose-only effect, or effect the other way, or a change in a side signal; inactive means no such curve, though single readings can be large or run the other way; the % refers to the signal ratio; further: on the % scale 0 is the no-effect control and ±100 the full control effect); conditions: ER-alpha-UAS-bla HEK293, beta-lactamase ratio, antagonist mode; activity, negative = inhibition: at 76.9 µM (top of the series) unless noted
Sequence of UniProt P03372 (P03372 whole entry, looked up): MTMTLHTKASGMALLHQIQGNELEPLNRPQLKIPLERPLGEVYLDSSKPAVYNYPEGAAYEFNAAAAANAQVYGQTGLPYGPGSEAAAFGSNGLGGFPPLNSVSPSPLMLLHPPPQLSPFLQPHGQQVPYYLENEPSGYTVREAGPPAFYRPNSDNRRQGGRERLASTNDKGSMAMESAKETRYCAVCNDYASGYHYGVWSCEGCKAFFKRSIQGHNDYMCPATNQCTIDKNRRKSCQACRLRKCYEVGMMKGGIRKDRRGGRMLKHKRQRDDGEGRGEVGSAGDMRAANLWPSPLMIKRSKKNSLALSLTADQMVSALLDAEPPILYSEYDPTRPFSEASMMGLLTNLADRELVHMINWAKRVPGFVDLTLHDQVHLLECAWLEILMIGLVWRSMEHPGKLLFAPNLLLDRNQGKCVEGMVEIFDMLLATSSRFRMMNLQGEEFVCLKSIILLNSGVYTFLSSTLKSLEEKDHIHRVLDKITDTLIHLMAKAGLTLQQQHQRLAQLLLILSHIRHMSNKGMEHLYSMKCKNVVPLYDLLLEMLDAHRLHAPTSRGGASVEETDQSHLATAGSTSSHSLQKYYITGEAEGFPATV
Procedure, shortened: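 Beta-lactamase reporter, antagonist mode, HEK 293 GripTite cells; 0.5nM E2 stimulus, 18 h, 37 C; CCF4 dye 2 h RT; fluorescence. IC50 and efficacy from Hill fits, normalized to E2 and DMSO.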

[2] = qHTS assay for cell viability of HEK293 cells (AID 743288); conditions: ATP luminescence (CellTiter-Glo), 18 h; max response: stronger effect = lower value; further: potency means the concentration at half of the fitted maximal effect; nearly all actives have a fitted effect of over 50% in size
Procedure, shortened: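 ATP luminescence (CellTiter-Glo) reports metabolically competent cell number after parental HEK293 cells, 2,000/well, were treated with DMSO-dissolved compounds for 18 h at 37 C; reagent incubation 30 min, room temperature.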

[3] = Cell Viability - Mesenchymal (AID 546); conditions: mesenchymal cells viability, qHTS; activity change, negative = cytotoxicity: at 91.7 µM (top of the series);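 further: cells exposed to compound for 40 hours before reading; 0% = DMSO only and -100% = 100 µM tamoxifen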
Procedure, shortened: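 Human renal mesenchymal cells (glomerulus-derived), 1000 cells/well, 5 hr 37 °C pre-incubation; compound 40 hr, 37 °C; CellTiter-Glo, 20 min RT; luminescence; AC50 via Hill equation.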

[4] = Cell Viability - LYMP2-004 (AID 966); further: nearly all actives have a fitted effect of over 65% in size; further: potency means the concentration at half of the fitted maximal effect;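 on activity change, negative = cytotoxicity: plate controls were DMSO only for no effect and tetraoctylammonium bromide control for full effect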
Procedure, shortened: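 qHTS cytotoxicity: human lymphoblastoid line, 24 hr compound treatment, 37 C, complete medium. Viability read as cellular ATP via luciferase luminescence; tetraoctylammonium bromide served as positive control.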

[5] = Cellular Toxicity (caspase-3) SHSY5Y (AID 657);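 further: cells exposed to compound for 16 hours at 37 °C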; further: potency means the concentration at half of the fitted maximal effect
Procedure, shortened: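 Luminescent caspase-3/7 readout (aminoluciferin release) in SH-SY5Y cells after 16 h compound exposure in complete medium. Activity scaled between DMSO basal and 10 uM staurosporine as 100%; concentration-response fitted to Hill equation for AC50.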

[6] = qHTS Assay for Identification of Small Molecule Inducers of Hypoxia Response (AID 2120; active means well fitted curve in the direction sought with a large enough effect in the signal ratio, with a control signal flat, not every such curve was filed as active; inconclusive means small, poorly fitted or top-dose-only effect, or a change in a side signal; inactive means no such curve, though single readings can be large or run the other way; the % refers to the signal ratio; further: potency means the concentration at half of the fitted maximal effect; on activation: 0% is about no effect); conditions: hypoxia response reporter cells, beta-lactamase ratio readout; activation: at 104 µM (top of the series)
Procedure, shortened: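 Cell-based qHTS for reporter induction: hypoxia response element controlled beta-lactamase in ME-180 cells. Compounds incubated 17 h at 37 degrees C; activity from blue/green (460/530 nm) ratio, inducers ranked by AC50.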

SC27B = assay: qHTS profiling for inhibitors of Plasmodium falciparum proliferation (AID 504749); further: potency means the concentration at half of the fitted maximal effect; nearly all actives have a fitted effect of over 60% in size; conditions: P. falciparum in erythrocytes, SYBR Green DNA, 72 h
Procedure, shortened: (§1)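 Each compound contacts P. falciparum-infected red blood cells for 72 h at 37 C; lysis buffer (Tris, EDTA, saponin, Triton X, SYBR Green I) is added and fluorescence measured next morning; values normalized to controls.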

[7] = Cell Viability - N2a (AID 540); conditions: N2a mouse neuroblastoma cell viability; activity change, negative = cytotoxicity: at 92.2 µM (top of the series);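 further: cells exposed to compound for 40 h at 37 °C; plate controls were DMSO alone for no effect and tamoxifen control for full effect; nearly all actives have a fitted effect of over 45% in size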
Procedure, shortened: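 Cytotoxicity was scored as loss of cellular ATP in N2a cells, a mouse neuroblastoma line. Compounds are applied in a qHTS concentration series for 40 hr at 37 °C.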

[8] = Cell Viability - H-4-II-E (AID 543);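 further: potency means the concentration at half of the fitted maximal effect; cells exposed to compound for 40 hours; nearly all actives have a fitted effect of over 35% in size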
Procedure, shortened: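 Cells seeded at 1500 per well and rested 5 hr; compounds added; 40 hr incubation at 37 °C; CellTiter-Glo added, 20 min at room temperature; luminescence read. Hill-equation fits gave AC50.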

[9] = Cell Viability - LYMP2-019 (AID 973); conditions: LYMP2-019 lymphoblastoid cell line viability; further: potency means the concentration at half of the fitted maximal effect; nearly all actives have a fitted effect of over 55% in size
Procedure, shortened: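 Cytotoxicity is scored as a concentration-dependent drop in cellular ATP after cells (2500/well) receive compound for 24 hr at 37 C. Tetraoctylammonium bromide serves as positive control.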

[10] = Cell Viability - LYMP2-025 (AID 976); conditions: LYMP2-025 lymphoblastoid cell viability; further: potency means the concentration at half of the fitted maximal effect
Procedure, shortened: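 Acute cytotoxicity is scored as a concentration-dependent fall in intracellular ATP, measured by luciferase luminescence, in human lymphoblastoid LYMP2-025 cells exposed to compound for 24 hours at 37 C. AC50 values come from standard Hill fits.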

[11] = Cell Viability - LYMP2-014 (AID 983); further: nearly all actives have a fitted effect of over 50% in size; further: potency means the concentration at half of the fitted maximal effect;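 on activity change, negative = cytotoxicity: plate controls were DMSO only for no effect and 92 µM tetraoctylammonium bromide for full effect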
Procedure, shortened: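 Cells are plated at 2500/well and left 5 hr at 37 C. Compounds are added across a concentration range and incubated 24 hr at 37 C in complete medium. CellTiter-Glo is added, and luminescence is read after 30 min at room temperature.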

[12] = target: Bile acid receptor (Homo sapiens) (UniProt Q96RI1); assay: qHTS assay for small molecule antagonists of farnesoid X receptor signaling (AID 588526; calls by dose curve; further: potency means the concentration at half of the fitted maximal effect; on activity change, negative = inhibition: on the % scale 0 is the no-effect control and ±100 the full control effect); conditions: HEK293T FXR-UAS-bla, beta-lactamase ratio, antagonist mode; activity change, negative = inhibition: at 76.7 µM (top of the series)
Procedure, shortened: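 Antagonist mode: titrated compounds tested against chenodeoxycholic acid stimulation (normalized to 50 uM CDCA and DMSO) in GeneBLAzer HEK293T cells for 16 h. Beta-lactamase read by CCF4 fluorescence; IC50 from Hill fits.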

[13] = target: Glucocorticoid receptor (Homo sapiens) (UniProt P04150); assay: qHTS assay for small molecule antagonists of glucocorticoid receptor signaling (AID 588533; active means well fitted inhibition curve with a large enough effect in the signal ratio, with a control signal flat, not every such curve was filed as active; inconclusive means small, poorly fitted or top-dose-only effect, or effect the other way, or a change in a side signal; the % refers to the signal ratio;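 further: cells stimulated with 2 nM dexamethasone as agonist; potency means the concentration at half of the fitted maximal effect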); conditions: HeLa MMTV-bla, GRE beta-lactamase ratio, antagonist mode, 18 h; activity change, negative = inhibition: at 76.8 µM (top of the series)
[14] = qHTS assay for small molecule disruptors of the mitochondrial membrane potential - 5 hr assay (AID 651755; calls by dose curve; further: nearly all actives have a fitted effect of over 40% in size; further: potency means the concentration at half of the fitted maximal effect; on ratio change, negative = disruption: on the % scale 0 is the no-effect control and ±100 the full control effect); conditions: JC-1-type ratio dye; ratio change, negative = disruption: at 92.2 µM (top of the series)
Procedure, shortened: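 Read-out: ratiometric Mito-MPS fluorescence, green monomer (ex 490/em 535) vs red mitochondrial aggregate (ex 540/em 590). HepG2 cells treated 5 hr at 37C before 30 min dye loading.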

[15] = target: Nuclear receptor ROR-gamma (Homo sapiens) (UniProt P51449); assay: qHTS assay for small molecule antagonists of the retinoid-related orphan receptor gamma (ROR-gamma) signaling pathway (AID 651802); further: potency means the concentration at half of the fitted maximal effect; nearly all actives have a fitted effect of over 60% in size
Sequence of UniProt P51449 (P51449 whole entry, looked up): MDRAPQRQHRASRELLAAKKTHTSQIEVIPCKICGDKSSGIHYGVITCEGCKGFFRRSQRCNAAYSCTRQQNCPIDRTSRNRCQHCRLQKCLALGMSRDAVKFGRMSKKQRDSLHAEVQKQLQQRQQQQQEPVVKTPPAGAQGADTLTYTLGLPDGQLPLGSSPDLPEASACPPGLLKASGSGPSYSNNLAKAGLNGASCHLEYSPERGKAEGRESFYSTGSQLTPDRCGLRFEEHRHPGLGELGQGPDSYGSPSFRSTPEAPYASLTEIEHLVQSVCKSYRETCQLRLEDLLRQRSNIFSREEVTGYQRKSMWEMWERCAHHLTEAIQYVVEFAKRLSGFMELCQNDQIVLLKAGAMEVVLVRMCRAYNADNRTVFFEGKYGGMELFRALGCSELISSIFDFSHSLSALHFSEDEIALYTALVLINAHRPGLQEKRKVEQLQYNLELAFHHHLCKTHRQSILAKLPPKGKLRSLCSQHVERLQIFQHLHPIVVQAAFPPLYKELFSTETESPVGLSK
Procedure, shortened: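 Steps: cells dispensed; compound or DMSO transferred by pin tool; doxycycline added to induce the ROR response element-driven luciferase; plates held 16hr at 37C; ONE-Glo added and luminescence measured.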

[16] = qHTS assay for small molecule antagonists of the retinoid-related orphan receptor gamma (ROR-gamma) signaling pathway - cell viability counter screen (AID 720652; active means well fitted curve in the direction sought with a large enough effect in the repeat runs; inconclusive means weak or mixed curves; inactive means no such curve, though single readings can be large; an effect the other way counts as inactive or inconclusive;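 further: potency means the concentration at half of the fitted maximal effect; compound exposure lasted 16 hr before ATP read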)
Procedure, shortened: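 Steps: seed CHO cells bearing TET-inducible ROR and ROR response element-luciferase; rest 5 hr at 37 C; add compound, then doxycycline; incubate 16 hr; add CellTiter-Glo and read luminescence as ATP-based viability.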

[17] = target: Bile acid receptor (Homo sapiens) (UniProt Q96RI1); assay: qHTS assay for small molecule agonists of farnesoid X receptor signaling (AID 588527; calls by dose curve; further: potency means the concentration at half of the fitted maximal effect;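 on activation: 0% = vehicle basal and 100% = reference agonist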); conditions: HEK293T FXR-UAS-bla, beta-lactamase ratio, 16 h; activation: stronger effect = higher value
Procedure, shortened: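 FXR-UAS-bla HEK293T cells (10% dialyzed FBS) preincubated 5-7 h at 37 C, then compounds at up to 92 uM for 16 h at 37 C. CCF4 beta-lactamase read-out after 2 h RT. Normalized to chenodeoxycholic acid (100 uM) and DMSO; Hill fit gave EC50 and efficacy.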

[18] = qHTS assay for small molecule agonists of the antioxidant response element (ARE) signaling pathway measured by Nrf2-dependant transcriptional activity (AID 720636; active means well fitted curve in the direction sought with a large enough effect in the repeat runs; inconclusive means weak or mixed curves; inactive means no such curve, though single readings can be large; an effect the other way counts as inactive or inconclusive; further: potency means the concentration at half of the fitted maximal effect)
Procedure, shortened: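 ONE-Glo luminescence, read 30 min after reagent addition at room temperature, reflected ARE reporter activity in HepG2 cells that had been incubated with compound for 16 hr at 37 C in 1% dialyzed FBS.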

FAB9 = assay: qHTS profiling for inhibitors of Plasmodium falciparum proliferation (AID 504749); further: potency means the concentration at half of the fitted maximal effect; nearly all actives have a fitted effect of over 60% in size; conditions: P. falciparum in erythrocytes, SYBR Green DNA, 72 h
Procedure, shortened: as §1
Tags describe the fitted curve by direction and shape.

For `CC(=O)S[C@@H]1CC2=CC(=O)CC[C@]2(C)[C@H]2CC[C@@]3(C)[C@@H](CC[C@@]34CCC(=O)O4)[C@H]12`, the activity, negative = inhibition [1] was inconclusive: -73.2% and the Potency [2] was inconclusive [cytotoxic, partial curve].

In the case of `CCCCC`, the Potency [3] was “inactive” and the Potency [4] was “inactive”.

In the case of `COC(=O)c1ccccc1O`, the Potency [5] was “inactive” and the activation [6] was inconclusive: 1.13%.

With `CC(=O)Nc1c(I)c(C(=O)O)c(I)c(N(C)C(C)=O)c1I` the Potency (SC27B) was inconclusive [inhibitor, single point].

In the case of `CC(C)(C)CC(C)(C)c1ccc(OCCO)cc1`, the activity change, negative = cytotoxicity [7] was inconclusive: -59%, the Potency [8] was inconclusive [falling, partial curve] and the Potency [9] was inconclusive [cytotoxic, partial curve, poor fit]. The Potency [10] was inconclusive [cytotoxic, partial curve, poor fit], the Potency [11] was “inactive” and the activity change, negative = inhibition [12] was inconclusive: -32%. The Potency [13] was inconclusive [activator, full curve], the Potency [14] was inconclusive [inhibitor, partial curve] and the Potency [15] was active: 42.2 µM. The Potency [16] was inconclusive [rising, partial curve, poor fit].

For `C=C1C(CCl)(CCl)C2(Cl)C(Cl)C(Cl)C1(Cl)C2(Cl)Cl` (stereo not given), the activity change, negative = cytotoxicity [7] was active: -112%, the Potency [8] was active: 50.1 µM and the activity change, negative = cytotoxicity [3] was inconclusive: -90.3%. For the same compound, the Potency [5] was active: 39.8 µM, the Potency [4] was active: 39.8 µM and the Potency [9] was active: 39.8 µM. For the same compound, the Potency [10] was inconclusive [cytotoxic, single point], the Potency [11] was active: 50.1 µM and the Potency [6] was inconclusive [side channel, falling, single point]. For the same compound, the Potency [12] was inconclusive [side channel, rising, full curve, poor fit], the Potency [17] was inconclusive [side channel, rising, partial curve, poor fit] and the Potency [13] was inconclusive [cytotoxic, partial curve]. For the same compound, the ratio change, negative = disruption [14] was inconclusive: -20.7%, the Potency [15] was inconclusive [inhibitor, partial curve, poor fit] and the Potency [18] was active: 66.8 µM. For the same compound, the Potency [16] was inconclusive [cytotoxic, single point], the Potency [2] was inconclusive [cytotoxic, partial curve, poor fit] and the Potency (FAB9) was active: 3.55 µM.

In the case of `CCN(CC)CCCC(C)Nc1cc(/C=C/c2ccccc2Cl)nc2cc(Cl)ccc12` (stereo not given), the Potency (FAB9) was inconclusive [inhibitor, single point] and the Potency (SC27B) was active: 2.82 µM.

In the case of `CC[C@@H]1Cc2cc(O)ccc2C2=C1c1ccc(O)cc1C[C@H]2CC`, the activation [17] was inconclusive: 27.8%.

With `O=C(Nc1ccccc1)c1cc([N+](=O)[O-])ccc1Cl` the Potency [1] was “inactive” and the Potency [18] was active: 3.06 µM.
